Measurements: the supplement of paper PMC12217912
This is one part of the list. The full chains were built here from the parent and the listed change. Inactive controls read about 0.05.

B1: TEV protease; numbered along this chain (parent)
chain: MGESLFKGPRDYNPISSSICHLTNESDGHTTSLYGIGFGPFIITNKHLFRRNNGTLVVQSLHGVFKVKDTTTLQQHLVDGRDMIIIRMPKDFPPFPQKLKFREPQREERICLVTTNFQTKSMSSMVSDTSCTFPSGDGIFWKHWIQTKDGQCGSPLVSTRDGFIVGIHSASNFTNTNNYFTSVPKNFMELLTNQEAQQWVSGWRLNADSVLWGGHKVFMVKPEEPFQPVKEATQL

Variants of: B1
Assay: raw area under fraction-flipped curve 0-4 h after induction (AUC4h, not background-subtracted), DNA-recorder readout of cleavage of the substrate (dimensionless); higher = more cleavage of the substrate by the protease variant
Settings: temperature: 34 °C; time window: 0-4 h after rhamnose induction
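Further: Bxb1 expression induced with 0.2% (w/v) L-rhamnose at OD600 near 0.5, cultures sampled hourly, flipped fraction per protease–substrate barcode pair counted by paired-end Illumina sequencing.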

MGESLFKGPRDYNPISSSICHLTNESDGHTTSLYGIGFGPFIITNKHLFRRNNGTLVVQSLHGVFKVKDTTTLQQHLVDGRDMIIIRMPKDFPPFPQKLKFREPQREERICLVTTNFQTKSMSSMVSDTSCTFPSGDGIFWKHWIQTKDGQCGSPLVSTRDGFIVGIHSASNFTNTNNYFTSVPKNFMELYTNQEAQQWVSGWRLNADSVLWGGHKVFMVKPEEPFQPVKEATQL [L191Y]
area with substrate ENLYFQD: 0.0493 | area with substrate ENLYFQE: 0.0541 | area with substrate ENLYFQI: 0.0529 | area with substrate ENLYFQK: 0.0661 | area with substrate ENLYFQL: 0.0622 | area with substrate ENLYFQN: 0.0523 | area with substrate ENLYFQR: 0.0579 | area with substrate ENLYFQS: 0.0651 | area with substrate ENLYFQW: 0.0598 | area with substrate ENLYFQY: 0.0408

MGESLFKGPRDYNPISSSICHLTNESDGHTTSLYGIGFGPFIITNKHLFRRNNGTLVVQSLHGVFKVKDTTTLQQHLVDGRDMIIIRMPKDFPPFPQKLKFREPQREERICLVTTNFQTKSMSSMVSDTSCTFPSGDGIFWKHWIQTKDGQCGSPLVSTRDGFIVGIHSASNFTNTNNYFTSVPKNFMELLTNQEAQQWVSGWRLNADSVLWGGHKVFMMKPEEPFQPVKEATQL [V220M]
area with substrate ENLYFQD: 0.0643 | area with substrate ENLYFQF: 0.0831 | area with substrate ENLYFQI: 0.0527 | area with substrate ENLYFQK: 0.0648 | area with substrate ENLYFQL: 0.0532 | area with substrate ENLYFQN: 0.0826 | area with substrate ENLYFQP: 0.0586 | area with substrate ENLYFQR: 0.0478 | area with substrate ENLYFQS: 0.111 | area with substrate ENLYFQT: 0.0671 | area with substrate ENLYFQV: 0.0573 | area with substrate ENLYFQW: 0.0557

MGESLFKGPRDYNPISSSICHLTNESDGHTTSLYGIGFGPFIITNKHLFRRNNGTLVVQSLHGVFKVKDTTTLQQHLVDGRDMGIIRMPKDFPPFPQKLKFREPQREERICLVTTNFQTKSMSSMVSDTSCTFPSGDGIFWKHWIQTKDGQCGSPLVSTRDGFIVGIHSASNFTNTNNYFTSVPKNFMELLTNQEAQQWVSGWRLNADSVLWGGHKVFMVKPEEPFQPVKEATQL [I84G]
area with substrate ENLYFQE: 0.0982 | area with substrate ENLYFQF: 0.0563 | area with substrate ENLYFQG: 0.0616 | area with substrate ENLYFQI: 0.0463 | area with substrate ENLYFQL: 0.0499 | area with substrate ENLYFQM: 0.0552 | area with substrate ENLYFQN: 0.0423 | area with substrate ENLYFQP: 0.051 | area with substrate ENLYFQR: 0.0506 | area with substrate ENLYFQS: 0.0669 | area with substrate ENLYFQT: 0.0569 | area with substrate ENLYFQV: 0.0471 | area with substrate ENLYFQW: 0.0528

MGESLFKGPRDYNPISSSICHLTNESDGHTTSLYGIGFGPFIITNKHLFRRNNGTLVVQSLHGVFKVKDTTTLQQHLVDGRDMIIIRMPKDFPPFPQKLKFREPQREERICLVTTNFQTKSMSSMVSDTSCTFPSGDGIFAKHWIQTKDGQCGSPLVSTRDGFIVGIHSASNFTNTNNYFTSVPKNFMELLTNQEAQQWVSGWRLNADSVLWGGHKVFMVKPEEPFQPVKEATQL [W141A]
area with substrate ENLYFQE: 0.0438 | area with substrate ENLYFQH: 0.0634 | area with substrate ENLYFQI: 0.0462 | area with substrate ENLYFQK: 0.0635 | area with substrate ENLYFQL: 0.0561 | area with substrate ENLYFQM: 0.0592 | area with substrate ENLYFQP: 0.0552 | area with substrate ENLYFQS: 0.0574 | area with substrate ENLYFQT: 0.0585 | area with substrate ENLYFQW: 0.0561 | area with substrate ENLYFQY: 0.0591

MGESLFKGPRDYNPISSSICHLTNESDGHTTSLYGIGFGPFIITNKHLFRRNNGTLVVQSLHGVFKVKDTTTIQQHLVDGRDMIIIRMPKDFPPFPQKLKFREPQREERICLVTTNFQTKSMSSMVSDTSCTFPSGDGIFWKHWIQTKDGQCGSPLVSTRDGFIVGIHSASNFTNTNNYFTSVPKNFMELLTNQEAQQWVSGWRLNADSVLWGGHKVFMVKPEEPFQPVKEATQL [L73I]
area with substrate ENLYFQF: 0.0674 | area with substrate ENLYFQG: 0.13 | area with substrate ENLYFQH: 0.1 | area with substrate ENLYFQI: 0.0636 | area with substrate ENLYFQK: 0.0529 | area with substrate ENLYFQL: 0.0679 | area with substrate ENLYFQM: 0.0963 | area with substrate ENLYFQN: 0.139 | area with substrate ENLYFQP: 0.0483 | area with substrate ENLYFQQ: 0.0849 | area with substrate ENLYFQR: 0.0573 | area with substrate ENLYFQS: 0.102 | area with substrate ENLYFQT: 0.0577 | area with substrate ENLYFQV: 0.0621 | area with substrate ENLYFQW: 0.0644 | area with substrate ENLYFQY: 0.0869

MGESLFKGPRDYNPISSSICHLTNESDGHTTSLYGIGFGPFIITNKHLFRRNNGTLVVQSLHGVFKVKDTTTLQQHLVDGRDMIIIRMPKDFPPFPQKLKFREPQREERICLVTTNFQTKSMSSMVSDTSCTFPSGDGIFWKHWIQTKDGQCGSDLVSTRDGFIVGIHSASNFTNTNNYFTSVPKNFMELLTNQEAQQWVSGWRLNADSVLWGGHKVFMVKPEEPFQPVKEATQL [P155D]
area with substrate ENLYFQF: 0.0458 | area with substrate ENLYFQH: 0.0379 | area with substrate ENLYFQI: 0.0514 | area with substrate ENLYFQK: 0.0544 | area with substrate ENLYFQL: 0.0556 | area with substrate ENLYFQM: 0.0462 | area with substrate ENLYFQN: 0.053 | area with substrate ENLYFQQ: 0.0376 | area with substrate ENLYFQR: 0.0587 | area with substrate ENLYFQS: 0.0506 | area with substrate ENLYFQT: 0.0514 | area with substrate ENLYFQW: 0.0436 | area with substrate ENLYFQY: 0.052

MGESLFKGPRDYNPISSSICHLTNESDGHTTSLYGIGFGPFIITNKHLFRRNNGTLVVQSLHGVFKVKDTTTLQQHLVDGRDMIIIRMPKDFPPFPQKLKFREPQREERICLVTTNFQTKSMSSMVSDTSCTFPSGDGIFWKHWIQTKDGQCGSPLVGTRDGFIVGIHSASNFTNTNNYFTSVPKNFMELLTNQEAQQWVSGWRLNADSVLWGGHKVFMVKPEEPFQPVKEATQL [S158G]
area with substrate ENLYFQF: 0.0761 | area with substrate ENLYFQG: 0.096 | area with substrate ENLYFQH: 0.071 | area with substrate ENLYFQI: 0.133 | area with substrate ENLYFQL: 0.0688 | area with substrate ENLYFQM: 0.11 | area with substrate ENLYFQN: 0.0716 | area with substrate ENLYFQP: 0.0579 | area with substrate ENLYFQR: 0.0456 | area with substrate ENLYFQS: 0.109 | area with substrate ENLYFQV: 0.0618 | area with substrate ENLYFQW: 0.0598

MGESLFKGPRDYNPISSSICHLTNESDGHTTSLYGIGFGPFIITNKHLFRRNNGTLVVQSLHGVFKVKDTTTLQQHLVDGRDMIIIRMPKDFPPFPQKLKFREPQREERICLVTTNFQTKSMSSMVSDTSCTFPSGDGIFWKHWIQTKDGQCGSPLVSTRDGFIVGIHSASNFTNTNNYFTSVPKNFMELLTNQEAQQWVSGWRLNADSVLWGGHKVFMVKPEEPFQPVNEATQL [K230N]
area with substrate ENLYFQG: 0.101 | area with substrate ENLYFQH: 0.0775 | area with substrate ENLYFQK: 0.0751 | area with substrate ENLYFQL: 0.0639 | area with substrate ENLYFQM: 0.0862 | area with substrate ENLYFQP: 0.0582 | area with substrate ENLYFQQ: 0.0594 | area with substrate ENLYFQR: 0.07 | area with substrate ENLYFQS: 0.102 | area with substrate ENLYFQT: 0.065 | area with substrate ENLYFQW: 0.068

MGESLFKGPRDYNPISSSICHLTNESDGHTTSLYGIGFGPFIITNKHLFRRNNGTLVVQSLHGVFKVKDTTTLQQHLVDGRDMIRIRMPKDFPPFPQKLKFREPQREERICLVTTNFQTKSMSSMVSDTSCTFPSGDGIFWKHWIQTKDGQCGSPLVSTRDGFIVGIHSASNFTNTNNYFTSVPKNFMELLTNQEAQQWVSGWRLNADSVLWGGHKVFMVKPEEPFQPVKEATQL [I85R]
area with substrate ENLYFQH: 0.0634 | area with substrate ENLYFQI: 0.0584 | area with substrate ENLYFQK: 0.0752 | area with substrate ENLYFQL: 0.0592 | area with substrate ENLYFQM: 0.0573 | area with substrate ENLYFQN: 0.077 | area with substrate ENLYFQS: 0.0578 | area with substrate ENLYFQV: 0.0581 | area with substrate ENLYFQY: 0.0487

MGESLFKGPRDYNPISSSICHLTNESDGHTTSLYGIGFGPFIITNKHLFRRNNGTLVVQSLHGVFKVKDTTTLQQHLVDGRDMIIIRMPKDFPPFPQKLKFREPQREERICLVTTNFQTKSMSSMVSDTSCTFPSGDGIFWKHWIQTKDGQCGSPLVSTRDGFIVGIHSASNFTNTNNYFTSVPKNFMELLTNQEAQQWVSGWRLNADSVLWGGCKVFMVKPEEPFQPVKEATQL [H215C]
area with substrate ENLYFQH: 0.0647 | area with substrate ENLYFQL: 0.0598 | area with substrate ENLYFQM: 0.101 | area with substrate ENLYFQN: 0.0761 | area with substrate ENLYFQP: 0.0463 | area with substrate ENLYFQR: 0.0584 | area with substrate ENLYFQS: 0.0733 | area with substrate ENLYFQT: 0.0489 | area with substrate ENLYFQW: 0.0532
